Measured values published in PubChem BioAssay (NCATS).
The inconclusive results got no clear call from the source; some entries with a clear call stand among them for comparison. Where the call is inconclusive, the potency comes from a doubtful curve fit. Activity calls are given as the source filed them. Calls follow the shape of the dose curve; as a rule, active = well fitted cell-killing curve with a large enough effect; inconclusive = small, poorly fitted or top-dose-only effect, or effect the other way; inactive = no such curve, though single readings can be large or run the other way.
Potency is read from the fitted curve at half-maximal effect; tags tell the direction and shape of the fitted curve.

Experiment: Viability qHTS for spleen associated tyrosine kinase inhibitor (SYKi) naive MV4-11 cells (AID 1963823); also: nearly all actives have a fitted effect of over 40% in size
Settings: MV4-11 AML viability, CellTiter-Glo luminescence, 72 h; viability (% of control): at 45 µM (top of the series)
Procedure, shortened: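 In this viability screen, compounds acted on SYK inhibitor naive MV4-11 cells for three days (72 hr, 37 C). Remaining viable cells were measured by CellTiter-Glo luminescence following a 10 min room-temperature development.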
With `Cc1cc(Oc2ccc3nc(COc4ccc(CC5SC(=O)NC5=O)cc4)n(C)c3c2)cc(C)c1N` (stereo unspecified) the Potency was inconclusive: 16.6 µM [cytotoxic, partial curve]. In the case of `NCCCC[C@H](N[C@@H](CCc1ccccc1)C(=O)O)C(=O)N1CCC[C@H]1C(=O)O`, the “viability (% of control)” value is reported as inactive: 67.8%. In the case of `CO[C@H]1O[C@@H]2O[C@]3(C)CC[C@H]4[C@H](C)CC[C@@H]([C@H]1C)[C@@]24OO3`, the Potency is reported as active: 1.84 µM. For `C/C=C1/[C@H](O[C@@H]2O[C@H](CO)[C@@H](O)[C@H](O)[C@H]2O)OC=C(C(=O)OC)[C@H]1CC(=O)O[C@@H]1O[C@H](CO)[C@@H](O)[C@H](O)[C@H]1O`, the “viability (% of control)” value was inactive: 96.3% [at 17.3 µM]. With `CC(=O)C1=C(O)C2c3c[nH]c4cccc(c34)CC2C(C)(C)N(C)C1=O` (stereo unspecified) the Potency was inconclusive: 13 µM [cytotoxic, partial curve]. For `CC1=CC(=O)CC(C)(C)C1CCC(C)O[C@@H]1O[C@H](CO[C@@H]2OC[C@@H](O)[C@H](O)[C@H]2O)[C@@H](O)[C@H](O)[C@H]1O` (stereo partly specified), the “viability (% of control)” value was inactive: 58.7% [at 17.3 µM]. With `Cn1nnc(-c2ccc(-c3ccc(N4C[C@H](COP(=O)(O)O)OC4=O)cc3F)cn2)n1` the “viability (% of control)” value was inactive: 41.9%. In the case of `CN1CCN(CC(=O)N2c3ccccc3C(=O)Nc3cccnc32)CC1`, the viability (% of control) is reported as inactive: 98.6% [at 4.97 µM]. In the case of `C=C1C(=O)OC2C1CCC1(C)C(O)CCC(=C)C21` (stereo unspecified), the Potency is reported as active: 9.2 µM. With `COC(=O)C1=COC(OC2OC(CO)C(O)C(O)C2O)C2C1CC(OC(=O)C(O)CC(=O)O)C2C` (stereo unspecified) the “viability (% of control)” value was inactive: 88.5% [at 17.3 µM]. In the case of `O=C(O)[C@@H]1C[C@H]2C[C@@H](CCc3nn[nH]n3)CC[C@H]2CN1`, the “viability (% of control)” value is reported as inactive: 78.2%. For `Cc1[nH]c2ccccc2c1C1=C(NCCc2ccc(F)cc2)C(=O)N(C)C1=O`, the Potency was active: 16.4 µM. For `CC[C@H](C)/C=C(C)/C=C/C1=CC2=C(Cl)C(=O)[C@](C)(O)[C@H](OC(C)=O)[C@H]2CO1`, the Potency was active: 12.8 µM. For `COc1c2c(c(C)c3c1C(=O)OC3)O[C@@]1(C)C[C@@H](O)[C@]34O[C@](OC)(CC[C@]3(C)[C@H]1C2)OC4(C)C`, the “viability (% of control)” value was inactive: 49.9% [at 17.3 µM]. With `OC1(CN2CCC(COc3noc4cccc(O[C@@H]5CCOC5)c34)CC2)CCOCC1` the “viability (% of control)” value was inactive: 56%. With `CC1(C)C[C@H](O)C[C@@]2(C)[C@H]1[C@H](O)C=C1COC(=O)[C@@]12O` the “viability (% of control)” value was inactive: 58.3%. With `CC1(C)CCCC2(C)C(CO)C3CCC2C31` (stereo unspecified) the “viability (% of control)” value was inactive: 88.2%. With `CC(C)=CCC(O)[C@](C)(O)C1[C@H](O)C[C@@]2(C)C3CC=C4C(C[C@H](O)[C@@H](O[C@@H]5O[C@H](CO)[C@@H](O)[C@H](O)[C@H]5O)C4(C)C)[C@]3(C)C(=O)C[C@]12C` (stereo partly specified) the “viability (% of control)” value was inactive: 68.7% [at 17.3 µM]. For `CC(C)Oc1ccc(-c2cnc3c(-c4ccnc5ccccc45)cnn3c2)cc1`, the Potency was inconclusive: 2.31 µM [cytotoxic, full curve]. For `COc1nc2ccc(Br)cc2cc1[C@@H](c1ccccc1)[C@@](O)(CCN(C)C)c1cccc2ccccc12`, the Potency was active: 6.51 µM. For `COc1cc(CN(CCN)C(=O)c2cccs2)ccc1OCc1ccccc1`, the Potency was inconclusive: 10.3 µM [cytotoxic, partial curve].
